Experimental findings from publication PMC7819943, “Rice protein-binding microarrays: a tool to detect cis-acting elements near promoter regions in rice” are described below.

The list shows a part of the results.

For the assay, the target named is T1, OsWOX13 (Oryza sativa, UniProt Q5QMM3 1-267).
T1 sequence: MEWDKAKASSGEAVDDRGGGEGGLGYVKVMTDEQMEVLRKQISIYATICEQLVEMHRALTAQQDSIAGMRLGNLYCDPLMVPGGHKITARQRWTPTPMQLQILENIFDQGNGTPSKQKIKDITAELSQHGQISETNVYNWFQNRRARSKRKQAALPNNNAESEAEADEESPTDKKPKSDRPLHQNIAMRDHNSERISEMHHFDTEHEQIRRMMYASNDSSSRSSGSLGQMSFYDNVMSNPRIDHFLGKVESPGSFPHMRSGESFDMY
The assay is described as follows: protein-binding microarray (RPBM); PBS, 2% BSA, 51.3 ng/ul salmon testes DNA, 50 uM zinc acetate, 200 nM TF, 25 C, 1 h; high values mean tight binding. The conditions noted are these: protein: recombinant; tags: N-terminal polyhistidine and DsRed monomer fusion (pET32a); label: CyDye5-dUTP incorporated in the synthesized complementary strand; 3' TTTTT single-stranded linker to array surface; dsDNA, one strand shown. The gist of the method: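 For the binding signal, per-feature fluorescence intensity was read in arbitrary units on an Axon 4000B scanner. Before scanning, a 2% BSA-blocked custom Agilent array made double-stranded with Cy5-dUTP was washed after 1 h at 25 °C with 200 nM protein and 50 µM zinc acetate. The proteins were Ni–NTA-purified transcription factors with N-terminal polyhistidine and DsRed fusions, expressed in E. coli BL21-CodonPlus.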
In the case of “GTTAATTTGAGTGTGCTTGATTTCCTTCGGCCATTGTTCTCGGAGTCACCTAGTGCAG”, the binding signal was 28000 fluorescence intensity (a.u.). Take “TCTCGCAATAATTAGGGAGAATGATCGGGCAGGGCTTAATCGGAGTCACCTAGTGCAG”: the binding signal was 6900 fluorescence intensity (a.u.). With “TCGTAAAATTAATTGTAAATTGTAATATGATAACAAGGCCCGGAGTCACCTAGTGCAG”, the binding signal is 33100 fluorescence intensity (a.u.). As for “TGCATCTCTGATTTGTAGTGAATGGGTCAAATGCTTTTGACGGAGTCACCTAGTGCAG”, the binding signal was 9930 fluorescence intensity (a.u.). Next, “TATTTATGATTTGTAGGTAGATAAGATTATGATTTGTCGACGGAGTCACCTAGTGCAG”: 9810 fluorescence intensity (a.u.); “CTCTTGATTGCGGCGCGACTGCGAGCGAGAGAGCTTCACGCGGAGTCACCTAGTGCAG”: 20500 fluorescence intensity (a.u.); “GCTTAATTGGTTAGTGGACTAGTATATAGTAGTACTGTATCGGAGTCACCTAGTGCAG”: 46500 fluorescence intensity (a.u.). Take “ACTAATTTGGTATTATAACTGTTGCTAATTATTCTATAAACGGAGTCACCTAGTGCAG”: the binding signal was 21700 fluorescence intensity (a.u.).

For “TCAATTTGTAGGGCATGATTAGATCCTAATTTTCTAAAGTCGGAGTCACCTAGTGCAG”, the binding signal was 7260 fluorescence intensity (a.u.).

In the case of “ATGATTGGCCTCATCTTCTGCCACCGTTGGTCGACCCCGTCGGAGTCACCTAGTGCAG”, the binding signal is 38500 fluorescence intensity (a.u.). Regarding “ATTTCAATCTAGCTGACATCATCACTTCATCTTATTTGACCGGAGTCACCTAGTGCAG”, the binding signal was 11300 fluorescence intensity (a.u.). With “ATTATGCACATAAATATGCTAATTAGAAAAGTGACACCATCGGAGTCACCTAGTGCAG”, the binding signal is 5290 fluorescence intensity (a.u.).

For the sequence “CACTAACTGCAGCTGTTGGCGATCGAATTAAGGATCCTGCCGGAGTCACCTAGTGCAG”, the binding signal is 3410 fluorescence intensity (a.u.).

As to “GTAATTGAAGGACAATACTACCGACTAGGGTGCGTTTTAACGGAGTCACCTAGTGCAG”, the binding signal was 7100 fluorescence intensity (a.u.). With “TCGATTAGAGAGAGATAATTAAGAAACAGGGATTACGGACCGGAGTCACCTAGTGCAG”, the binding signal is 3530 fluorescence intensity (a.u.). In the case of “AAGTTTCAAAATTTAAATTTTGACCGCATGCAGCTGATAACGGAGTCACCTAGTGCAG”, the binding signal is 4610 fluorescence intensity (a.u.). As for “GCTGTAATTAGAGAAGAGGATTTAAAGAGAGAGAAGGCCACGGAGTCACCTAGTGCAG”, the binding signal was 12800 fluorescence intensity (a.u.). “GTAATTTTGGTATGATTTAATAACTAAATTTGGTACCTCACGGAGTCACCTAGTGCAG”: the binding signal is 10400 fluorescence intensity (a.u.). The value for “CTGTTACAATTGATTGGCAAACCAAGTATTACGAATCGAGCGGAGTCACCTAGTGCAG” was 48200 fluorescence intensity (a.u.); that for “TAAGATTGGCTTCGCAGAAATACCATCACTTAAATCGGCTCGGAGTCACCTAGTGCAG” was 16300 fluorescence intensity (a.u.); that for “ATTTACATCTGATGACAATCAACTCTCTTACACATGGTATCGGAGTCACCTAGTGCAG” was 7320 fluorescence intensity (a.u.). For “TGCAATTAGCGATCCCACCTAATCTGCGGTTACAGCGATACGGAGTCACCTAGTGCAG”, the binding signal is 3440 fluorescence intensity (a.u.). Consider “GGACCTGTAAATTGCACATTTGTACATCCAACTGAGCACACGGAGTCACCTAGTGCAG”, for which the binding signal was 3480 fluorescence intensity (a.u.). As to “GTCCAATCCCTTACCGTTGATTGGCCACGTGGCTAAAACTCGGAGTCACCTAGTGCAG”, the binding signal was 16000 fluorescence intensity (a.u.). As for “CTTACCGTGCAAATTGAATTTTGTTACTGTTTGGTACTTCCGGAGTCACCTAGTGCAG”, the binding signal is 5060 fluorescence intensity (a.u.). With “ATCATCATAATTTATTTAAAATTGAATTCCGTTGAGCGAGCGGAGTCACCTAGTGCAG”, the binding signal was 21200 fluorescence intensity (a.u.). Consider “CCTAATTAACAATGCAGCAAAAGAAAGTTTCTGAGAAAGTCGGAGTCACCTAGTGCAG”, for which the binding signal was 22400 fluorescence intensity (a.u.). For “CTCGTTAGATTTTGATCAATGATTAGTCCAAATTATACATCGGAGTCACCTAGTGCAG”, the binding signal was 15200 fluorescence intensity (a.u.). As to “GTATATTGTATAATAATTGATAACTTACCGATATATTATACGGAGTCACCTAGTGCAG”, the binding signal is 23400 fluorescence intensity (a.u.). For the sequence “GCTTGATATGCGTAATTTCCTCGGAACTCATATAATACTTCGGAGTCACCTAGTGCAG”, the binding signal was 7590 fluorescence intensity (a.u.). For “CCAACCAATGACTATAAACGTAATTACTAATTATAGGAAGCGGAGTCACCTAGTGCAG”, the binding signal was 9310 fluorescence intensity (a.u.).

Regarding “GTCATGCAACCAATCACTGAAATTATGCTTATACATACACCGGAGTCACCTAGTGCAG”, the binding signal was 19500 fluorescence intensity (a.u.). As to “CAGATTAGATCAGAATTGAGGCGTTTTGGTCCCACTGAATCGGAGTCACCTAGTGCAG”, the binding signal was 5260 fluorescence intensity (a.u.). As to “GTAATTAATTACTGCAGAGAAACGACAGTGCTGATAACCGCGGAGTCACCTAGTGCAG”, the binding signal was 38800 fluorescence intensity (a.u.).

Regarding “ATTCATTGACAAGTTAAGGGACCTTAGATGAACTTATTCCCGGAGTCACCTAGTGCAG”, the binding signal was 4620 fluorescence intensity (a.u.).

Consider “ATGGACGGTTTGATTGATGATCAACTCAAAGTCCAACAGACGGAGTCACCTAGTGCAG”, for which the binding signal was 43900 fluorescence intensity (a.u.). As to “GAATCCTGAGATTGACGAAGTCACCACTTGCATCGTCGACCGGAGTCACCTAGTGCAG”, the binding signal is 14000 fluorescence intensity (a.u.). For “TTAGGTTGATGTGATGGCTAATTTATACAATAATATCTTACGGAGTCACCTAGTGCAG”, the binding signal was 4710 fluorescence intensity (a.u.). As for “ATTCTTCGGTTCTTGCTAATTGGTTGTTTGATCTGGAAGACGGAGTCACCTAGTGCAG”, the binding signal is 5040 fluorescence intensity (a.u.). The value for “CAGATGACAACTGCTGATTTTGACTTTGACTCTGAATCTGCGGAGTCACCTAGTGCAG” was 9960 fluorescence intensity (a.u.); that for “AACTCAAATTAAATTTCGTTGCAACTGATAAGCCAACAACCGGAGTCACCTAGTGCAG” was 7460 fluorescence intensity (a.u.); that for “TATTGATTGCGCAATTATTCGGCAGCGTCTATCTGTCTCTCGGAGTCACCTAGTGCAG” was 43800 fluorescence intensity (a.u.).

Regarding “GGTCACATATATTAGATTGGGGTCACATTTAAGGGAGTCACGGAGTCACCTAGTGCAG”, the binding signal is 4740 fluorescence intensity (a.u.). Next, “GCCTCTAATTCAATCCGTTACAGATTAAATCATTCATGACCGGAGTCACCTAGTGCAG”: 13000 fluorescence intensity (a.u.). The value for “ATAAACAAATTAGGCCCACAAGTGAATTTGGCCCACTTCACGGAGTCACCTAGTGCAG” was 6440 fluorescence intensity (a.u.). “ACTAACCACTCATTAACGTGATCACGCTTGTCTATCATTGCGGAGTCACCTAGTGCAG”: the binding signal is 9080 fluorescence intensity (a.u.).

In the case of “TTCAAAATTAGTTGTATTTAGCAGCACAATTATAAAAGGGCGGAGTCACCTAGTGCAG”, the binding signal was 5050 fluorescence intensity (a.u.). “TTTGATAGGAACCGATTTCAATTTGTGATTCCTACGTATACGGAGTCACCTAGTGCAG”: the binding signal is 14700 fluorescence intensity (a.u.). As for “GCAAATTGTCCATCTCTGACGCCTCATCTGAATTGACTGACGGAGTCACCTAGTGCAG”, the binding signal is 13700 fluorescence intensity (a.u.).

With “TCAACTGATGACTTGGATTGGGTCTCCAGCATGTATGGTCCGGAGTCACCTAGTGCAG”, the binding signal is 8070 fluorescence intensity (a.u.). In the case of “AGTTATTTCTAAATTATATTAATATATGGACTCTAGTCTCCGGAGTCACCTAGTGCAG”, the binding signal was 5540 fluorescence intensity (a.u.). Consider “GATTACATTTCAATTCAATTTCAATCCCATTCACTTTTGCCGGAGTCACCTAGTGCAG”, for which the binding signal is 5750 fluorescence intensity (a.u.). Next, “ATAACTAATATTTAATTAATTATACGTTAATACATATATTCGGAGTCACCTAGTGCAG”: 11900 fluorescence intensity (a.u.). Consider “TGACTAATTGGCTTGGTGATACCGAGTACTGCTCCCTTCGCGGAGTCACCTAGTGCAG”, for which the binding signal was 49100 fluorescence intensity (a.u.).
